Test results as given in PubChem BioAssay AID759 (NMMLSC, 2007).
The whole screen tested about 190,000 compounds, of which about 270 (0.14%) were called active. The inconclusive results got no clear call from the source; some entries with a clear call stand among them for comparison.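 Rule for the calls: active = GTP binding activity at least 20% away from the 100% baseline, either lowered as inhibitor or raised as activator; inconclusive = flagged as likely green fluorescent, judged across all proteins in the well; inactive = the rest.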

Biological target: GTPase HRas (Homo sapiens) (UniProt P01112)
Experiment: HRas wt fluorescent GTP binding changes, either direction – biochemical, wildtype, bead-based flow cytometry, multiplex, primary screen (AID 759);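 note: 0% = unlabeled GTP competition control and 100% = no-compound control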
Details: GST-Ras wt beads, Bodipy-FL-GTP binding, at 10 µM, actives lie on both sides

UniProt P01112, sequence (P01112 whole entry, looked up): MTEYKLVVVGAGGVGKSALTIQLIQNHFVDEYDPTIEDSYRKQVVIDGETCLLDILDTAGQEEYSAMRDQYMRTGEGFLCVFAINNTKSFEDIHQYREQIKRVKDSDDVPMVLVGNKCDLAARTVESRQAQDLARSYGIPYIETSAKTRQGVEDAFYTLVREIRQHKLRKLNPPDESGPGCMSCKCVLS

Compound | GTP binding activity
O=C(O)CSc1ccc2nnc(-c3cccnc3)n2n1 | inactive: 91%
COc1cc2c(C)nc3onc(-c4ccccc4)c3c2cc1OC | inconclusive: 89%
Cc1ccc2oc3c(c(=O)c2c1)C(c1ccc(F)cc1)N(CCCN1CCOCC1)C3=O (stereo not drawn) | inconclusive: 103%
CC1CCN(CCCOc2ccc(Br)cc2Cl)CC1 | inconclusive: 96%
CCOC(=O)c1nn(-c2ccc(F)cc2)c(C)c1C(C)=O | inconclusive: 103%
O=C(N/N=C/c1ccc(OCc2ccccc2)cc1)c1cccs1 | inconclusive: 94%
CC(=O)/C(N)=N/Nc1cccc(Cl)c1 | inconclusive: 97%
Cc1ccc(-c2[nH]nc(N)c2N=Nc2cccc(Cl)c2C)cc1 | inconclusive: 96%
COC(=O)c1sccc1NC(=O)Cn1cnc2c1c(=O)n(C)c(=O)n2C | inconclusive: 104%
O=C1CC(c2cccs2)CC2=C1C(c1ccccc1)n1ncnc1N2 (stereo not drawn) | inconclusive: 121%
COc1cc(NC(=O)CSc2nnc3c(n2)[nH]c2ccc(S(=O)(=O)NC(C)C)cc23)cc(OC)c1OC | inactive: 94%
O=C(Cn1nnc(-c2ccccc2)n1)NNC(=O)c1ccc(Br)cc1 | inconclusive: 94%
CC(OCC(O)CN(C)Cc1nc2ccccc2c(=O)[nH]1)c1ccc(Cl)cc1 (stereo not drawn) | inactive: 95%
CCCCCc1c(O)nc(SCC(=O)NCC2CCCO2)[nH]c1=O (stereo not drawn) | inactive: 98%
CCOc1c2ccc(C(=O)N[C@H](C)C3CCCCC3)cc2nn1CCOC | inconclusive: 136%
CCC(C)Sc1nc2c(c(=O)[nH]1)C(c1cccs1)C1=C(CCCC1=O)N2 (stereo not drawn) | inconclusive: 89%
CSc1ncccc1C(=O)Nc1ccc(S(=O)(=O)NC2=NCCCCC2)cc1 | inconclusive: 104%
Cn1c(=O)[nH]c(=O)c2c1nc1n2CCN1Cc1ccccc1 | inconclusive: 82%
O=CN1CCN(C(=O)c2ccccc2F)CC1 | inconclusive: 91%
CC(C)Sc1n[nH]c2nc3c(c(=O)n12)C1(CCCC1)Cc1ccccc1-3 | inconclusive: 101%

Compound | GTP binding activity
Cc1cc(OC(F)F)ccc1NC(=O)Nc1ccc([N+](=O)[O-])cc1 | inactive: 101%
Cc1cc(C)c(C(=O)CN2C(=O)NC3(CCC(C)CC3)C2=O)cc1C (stereo not drawn) | inconclusive: 93%
COc1ccc(NC(=O)c2cc(S(=O)(=O)N(Cc3ccccc3)c3ccccc3)ccc2Cl)cn1 | inconclusive: 102%
COC(=O)c1sccc1NC(=S)N1CCN(c2cc(C)ccc2C)CC1 | inactive: 100%
COc1ccc(-c2c(-c3ccc(O)cc3O)n[nH]c2C)cc1OC | inconclusive: 95%
COc1ccc(CN=C2Nc3ccccc3CS2)cc1 | inconclusive: 102%
COc1cc(NC(=O)COC(=O)/C=C/c2ccc(Cl)cc2Cl)cc(OC)c1 | inactive: 98%
Cc1cc(-c2ccc(Cl)cc2)n2nc(N)nc2n1 | inconclusive: 95%
C/C(=N\NC(=O)c1cc(C)oc1C)c1ccc(N2CCOCC2)cc1 | inconclusive: 95%
COc1cc(NC(=O)c2cc3c(C)nc4ccccc4c3o2)cc(OC)c1OC | inconclusive: 94%
Cc1ccc2[nH]c(=O)c(CN(C(=O)c3cccs3)c3ccccc3)cc2c1 | inconclusive: 102%
COc1cc2[nH]c(=S)n(CC3CCCO3)c(=O)c2cc1OC (stereo not drawn) | inactive: 104%
CCN(C#N)c1nc(NC(C)C)nc(NC(C)(C)C)n1 | inconclusive: 95%
N#Cc1nc(Cc2ccccc2)oc1NCCN1CCOCC1 | inconclusive: 101%
CC(=O)Nc1ccc(NC(=O)COC(=O)CCc2nc3ccccc3s2)cc1 | inconclusive: 94%
CC(C)(C)C(=O)N(Cc1ccccc1)c1ccccn1 | inactive: 95%
CSc1ccccc1NC(=O)Cn1nc([N+](=O)[O-])cc1C | inactive: 95%
Cc1cccc(N/N=C(\C#N)S(=O)(=O)C(C)(C)C)c1 | inconclusive: 94%
Cc1cccc2sc(N(CCCN(C)C)C(=O)c3nc4ccccc4s3)nc12 | inconclusive: 99%
CCCNC(=O)Cn1c(=O)/c(=C\c2ccc(-c3ccc([N+](=O)[O-])cc3)o2)s/c1=C\C(=O)C(C)(C)C | inconclusive: 132%

Compound | GTP binding activity
O=S(=O)(N/N=C\c1cccnc1)c1ccccc1 | inconclusive: 248%
CCC(=O)N1c2ccc(S(=O)(=O)CCC(=O)Nc3nccs3)cc2CC1C (stereo not drawn) | inconclusive: 103%
CC(=O)N1C(=O)/C(=C2\SC(=S)N(NS(=O)(=O)c3ccc(C)cc3)C2=O)c2ccccc21 | inconclusive: 89%
CCN(c1ccccc1)S(=O)(=O)c1ccc(OC)c(NC(=O)c2cccs2)c1 | inconclusive: 89%
O=C(C1CCN(S(=O)(=O)N2CCC3(CC2)OCCO3)CC1)N1CCOCC1 | inconclusive: 102%
CC(C)C(C(=O)Nc1cccnc1)N1C(=O)c2ccccc2C1=O (stereo not drawn) | inconclusive: 105%
COc1cc(C)c(S(=O)(=O)N2CCOCC2)cc1C(C)C | inconclusive: 102%
O=C1Nc2ccccc2N(O)N1c1cc(-c2ccccc2)[nH]n1 | inconclusive: 95%
O=C(Nc1ccc(NC(=O)c2cccs2)cc1)c1ccc(Br)o1 | inconclusive: 97%
C/C(=N\OC(=O)c1ccccc1F)c1nccs1 | inconclusive: 104%
S=C(Nc1ccc(Oc2ccccc2)cc1)NC1CCCCCC1 | inactive: 100%
CC(C)(C)NC(=O)COC(=O)c1ccc(S(=O)(=O)N2CCCC2)cc1 | inactive: 100%
COc1ccc(/C=C2\N=C(C)N(c3ccc4ccccc4c3)C2=O)cc1OC | inconclusive: 107%
CCn1c(SCC(=O)NNC(=O)Cc2ccccc2)nnc1-c1ccccc1 | inconclusive: 103%
CCOc1ccc2nc(NC3=NC(c4ccc(OC)cc4)CC(=O)N3)nc(C)c2c1 (stereo not drawn) | inconclusive: 107%
COc1ccc(OC(=O)c2cccc(S(=O)(=O)N3CCCC3)c2)cc1 | inconclusive: 92%
O=C(CSc1nnc2c(n1)[nH]c1ccccc12)Nc1ccc(S(=O)(=O)Nc2ncccn2)cc1 | inconclusive: 78%
O=c1[nH]cnc2c1N=C(c1cccc([N+](=O)[O-])c1)CC(c1ccccc1)N2 (stereo not drawn) | inactive: 100%
